The full ranking holds about 81,000 sequences; the median of “one-hybrid fitness for binding parS DNA” is about -0.17, and the highest 2% start at about 0.51. The list shows a part of the results.

B1: Caulobacter ParB omega fusion; a variant is named by its letters at X, in order, B8GW30 (parent)
chain: MESVVVGEPGMSEGRRGLGRGLSALLGEVDAAPAQAPGEQLGGSREAPIEILQRNPDQPRRTFREEDLEDLSNSIREKGVLQPILVRPSPDTAGEYQIVAGERAWRAAQRAGLKTVPIMVRELDDLAVLEIGIIENVQRADLNVLEEALSYKVLMEKFERTQENIAQTIGKSXSHVANXMRLLXLPDEVQSYLVSGELTAXHARAIAAAADPVALAKQIIEGGLSVRETEALARKAPNLSAGKSKGGRPPRVKDTDTQALESDLSSVLGLDVSIDHRGSTGTLTITYATLEQLDDLCNRLTRGI

This assay covers variants of B1. Briefly: one-hybrid fitness for binding parS DNA (scaled: cognate 1, non-cognate 0); higher = stronger binding. The conditions noted are these: with parS DNA site. The procedure, abridged: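 Caulobacter ParB libraries with four specificity codons randomised were screened by bacterial one-hybrid selection in the E. coli USO strain, using a HIS3 reporter whose site lies 19 bp from the promoter. Selection ran for 48 hours at 37°C on M9 lacking histidine, with 0.1 mM IPTG and 5 mM 3-AT. Plasmids were Illumina-sequenced before and after selection, three replicate libraries were pooled, and variants with under 10 reads were dropped. Fitness is the log change in each variant's read ratio to wild type, rescaled against the cognate and non-cognate sites.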
Turning to ADTN, the “one-hybrid fitness for binding parS DNA” value was not above 0.2.

Regarding PTCT, the “one-hybrid fitness for binding parS DNA” value was not above 0.2.

As for QPWV, the “one-hybrid fitness for binding parS DNA” value was not above 0.2.

As for QSGW, the “one-hybrid fitness for binding parS DNA” value was not above 0.2.

For PYGP, the “one-hybrid fitness for binding parS DNA” value is not above 0.2.

Take VNLR: the “one-hybrid fitness for binding parS DNA” value was not above 0.2.

As to TQNP, the “one-hybrid fitness for binding parS DNA” value is not above 0.2.

Take FVTP: the “one-hybrid fitness for binding parS DNA” value was not above 0.2.

Consider TRFN, for which the “one-hybrid fitness for binding parS DNA” value is not above 0.2.

For the variant TCEE, the “one-hybrid fitness for binding parS DNA” value is not above 0.2.

WPCS: the “one-hybrid fitness for binding parS DNA” value is not above 0.2.

As for CSIL, the “one-hybrid fitness for binding parS DNA” value was not above 0.2.

With KLCP, the “one-hybrid fitness for binding parS DNA” value was not above 0.2.

QAFG: the “one-hybrid fitness for binding parS DNA” value was not above 0.2.

For LWGT, the “one-hybrid fitness for binding parS DNA” value is not above 0.2.

Turning to AASE, the “one-hybrid fitness for binding parS DNA” value is not above 0.2.

Turning to HYPN, the “one-hybrid fitness for binding parS DNA” value was not above 0.2.

For QMVY, the “one-hybrid fitness for binding parS DNA” value was not above 0.2.

With RSFS, the “one-hybrid fitness for binding parS DNA” value amounted to 1.01.

In the case of NTLF, the “one-hybrid fitness for binding parS DNA” value is not above 0.2.

Turning to STHV, the “one-hybrid fitness for binding parS DNA” value was not above 0.2.

MQRC: the “one-hybrid fitness for binding parS DNA” value is not above 0.2.

Turning to AELS, the “one-hybrid fitness for binding parS DNA” value was not above 0.2.

On to EMFS, for which the “one-hybrid fitness for binding parS DNA” value was not above 0.2.

With TWDS, the “one-hybrid fitness for binding parS DNA” value is not above 0.2.

For the variant IFSG, the “one-hybrid fitness for binding parS DNA” value was not above 0.2.

For WPLS, the “one-hybrid fitness for binding parS DNA” value was not above 0.2.

As to TTDM, the “one-hybrid fitness for binding parS DNA” value is not above 0.2.

Consider VYIM, for which the “one-hybrid fitness for binding parS DNA” value is not above 0.2.

As to YWPY, the “one-hybrid fitness for binding parS DNA” value is not above 0.2.

In the case of EHLA, the “one-hybrid fitness for binding parS DNA” value was not above 0.2.

Take IPTV: the “one-hybrid fitness for binding parS DNA” value is not above 0.2.

For the variant YYRR, the “one-hybrid fitness for binding parS DNA” value is not above 0.2.

For the variant QGLR, the “one-hybrid fitness for binding parS DNA” value is not above 0.2.

For the variant YRCC, the “one-hybrid fitness for binding parS DNA” value was not above 0.2.

Consider DIHT, for which the “one-hybrid fitness for binding parS DNA” value was not above 0.2.

Turning to SFAV, the “one-hybrid fitness for binding parS DNA” value is not above 0.2.

On to IYNN, for which the “one-hybrid fitness for binding parS DNA” value is not above 0.2.

On to NIGT, for which the “one-hybrid fitness for binding parS DNA” value is not above 0.2.

Take TEMS: the “one-hybrid fitness for binding parS DNA” value is not above 0.2.

For the variant DIDL, the “one-hybrid fitness for binding parS DNA” value is not above 0.2.

On to RKPR, for which the “one-hybrid fitness for binding parS DNA” value was not above 0.2.

TLPM: the “one-hybrid fitness for binding parS DNA” value is not above 0.2.

On to MNIS, for which the “one-hybrid fitness for binding parS DNA” value is not above 0.2.

In the case of SHAT, the “one-hybrid fitness for binding parS DNA” value is not above 0.2.

On to EQNR, for which the “one-hybrid fitness for binding parS DNA” value is not above 0.2.

Turning to VRFV, the “one-hybrid fitness for binding parS DNA” value was not above 0.2.

For the variant HDKE, the “one-hybrid fitness for binding parS DNA” value is not above 0.2.

Turning to VTSW, the “one-hybrid fitness for binding parS DNA” value is not above 0.2.

With DVGK, the “one-hybrid fitness for binding parS DNA” value stood at 0.252.

As for NDSK, the “one-hybrid fitness for binding parS DNA” value was not above 0.2.

As for RSNI, the “one-hybrid fitness for binding parS DNA” value is not above 0.2.

YVTG: the “one-hybrid fitness for binding parS DNA” value is not above 0.2.

As for QTLA, the “one-hybrid fitness for binding parS DNA” value is not above 0.2.

For the variant NYTY, the “one-hybrid fitness for binding parS DNA” value was not above 0.2.

In the case of ESAT, the “one-hybrid fitness for binding parS DNA” value is not above 0.2.

For the variant HTVG, the “one-hybrid fitness for binding parS DNA” value was not above 0.2.

For the variant IREG, the “one-hybrid fitness for binding parS DNA” value was not above 0.2.

With RGPV, the “one-hybrid fitness for binding parS DNA” value was not above 0.2.

NTKR: the “one-hybrid fitness for binding parS DNA” value is not above 0.2.

Regarding IDPG, the “one-hybrid fitness for binding parS DNA” value was not above 0.2.

Turning to YNQT, the “one-hybrid fitness for binding parS DNA” value is not above 0.2.

Regarding SVIR, the “one-hybrid fitness for binding parS DNA” value was not above 0.2.

For the variant QHDL, the “one-hybrid fitness for binding parS DNA” value was not above 0.2.

As to EGTR, the “one-hybrid fitness for binding parS DNA” value is not above 0.2.

PISY: the “one-hybrid fitness for binding parS DNA” value was not above 0.2.

As to PNLH, the “one-hybrid fitness for binding parS DNA” value was not above 0.2.

Regarding RWID, the “one-hybrid fitness for binding parS DNA” value is not above 0.2.

For the variant FYQG, the “one-hybrid fitness for binding parS DNA” value was not above 0.2.

As for TCRC, the “one-hybrid fitness for binding parS DNA” value is not above 0.2.

As to WKVV, the “one-hybrid fitness for binding parS DNA” value is not above 0.2.

As to ATGC, the “one-hybrid fitness for binding parS DNA” value was not above 0.2.

For FRGS, the “one-hybrid fitness for binding parS DNA” value is not above 0.2.

For SLDQ, the “one-hybrid fitness for binding parS DNA” value was not above 0.2.

For TKAA, the “one-hybrid fitness for binding parS DNA” value is not above 0.2.

On to PPFI, for which the “one-hybrid fitness for binding parS DNA” value was not above 0.2.

With PAAN, the “one-hybrid fitness for binding parS DNA” value was not above 0.2.

Take ESSA: the “one-hybrid fitness for binding parS DNA” value is not above 0.2.

Regarding NMIG, the “one-hybrid fitness for binding parS DNA” value was not above 0.2.

For PVDY, the “one-hybrid fitness for binding parS DNA” value was not above 0.2.

SIQR: the “one-hybrid fitness for binding parS DNA” value was not above 0.2.

On to CGMS, for which the “one-hybrid fitness for binding parS DNA” value is not above 0.2.

On to MDAS, for which the “one-hybrid fitness for binding parS DNA” value is not above 0.2.

Regarding QVIG, the “one-hybrid fitness for binding parS DNA” value was not above 0.2.

Turning to RGEA, the “one-hybrid fitness for binding parS DNA” value was not above 0.2.

For the variant QCEC, the “one-hybrid fitness for binding parS DNA” value was not above 0.2.

In the case of MSYC, the “one-hybrid fitness for binding parS DNA” value was not above 0.2.

On to VDNC, for which the “one-hybrid fitness for binding parS DNA” value is not above 0.2.

With TLSL, the “one-hybrid fitness for binding parS DNA” value is not above 0.2.

For the variant PIET, the “one-hybrid fitness for binding parS DNA” value was not above 0.2.

Consider QCRT, for which the “one-hybrid fitness for binding parS DNA” value is not above 0.2.

Turning to TGNM, the “one-hybrid fitness for binding parS DNA” value is not above 0.2.

As for PEPQ, the “one-hybrid fitness for binding parS DNA” value was not above 0.2.

Consider CTGC, for which the “one-hybrid fitness for binding parS DNA” value is not above 0.2.

Regarding SRCL, the “one-hybrid fitness for binding parS DNA” value is not above 0.2.

Regarding QSTM, the “one-hybrid fitness for binding parS DNA” value was not above 0.2.

Turning to SAVN, the “one-hybrid fitness for binding parS DNA” value is not above 0.2.

Regarding RTDS, the “one-hybrid fitness for binding parS DNA” value turned out to be 0.989.

The values are drawn from a collection of fitness landscapes (doi:10.1016/j.celrep.2020.107928).
